# The supplement of paper PMC8728848
# Some of the results follow.
# B1: Cohesin-hLangerin (Homo sapiens) (protein)
# chain: LDDLDAVRIKVDTVNAKPGDTVRIPVRFSGIPSKGIANCDFVYSYDPNVLEIIEIEPGDIIVDPNPDKSFDTAVYPDRKIIVFLFAEDSGTGAYAITKDGVFATIVAKVKEGAPNGLSVIKFVEVGGFANNDLVEQKTQFFDGGANVGDTTEPATPTTPVTTPTTTDDLDAASYPRFMGTISDVKTNVQLLKGRVDNISTLDSEIKKNSDGMEAAGVQIQMVNESLGYVRSQFLKLKTSVEKANAQIQILTRSWEEVSTLNAQIPELKSDLEKASALNTKIRALQGSLENMSKLLKRQNDILQVVSQGWKYFKGNFYYFSLIPKTWYSAEQFCVSRNSHLTSVTSESEQEFLYKTAGGLIYWIGLTKAGMEGDWSWVDDTPFNKVQSARFWIPGEPNNAGNNEHCGNIKAPSLQAWNDAPCDKTFLFICKRPYVPSEPHHHHHH
# What was measured:
# Experiment in all cases: glycan array binding signal (z-score within array); higher = stronger binding
# Conditions in all cases: glycan notation: IUPAC condensed, linker removed
# [1] = molecular target: Neu5Ac(a2-3)Gal(b1-3)[Fuc(a1-4)]GlcNAc
# Outline: (§1)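 Glycan array data came from 3228 arrays in the Consortium for Functional Glycomics database, and only arrays with an available protein sequence were kept. Glycan names were put into IUPAC-condensed notation, and columns mapping to the same glycan were averaged. The binding signal is a within-array Z-score, averaged across arrays of one protein sequence run at different concentrations or buffers and across linkers. A negative Z-score can be read as non-binding.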
# [2] = molecular target: Neu5Ac(a2-3)Gal(b1-3)[Fuc(a1-4)]GlcNAc(b1-3)Gal(b1-3)[Fuc(a1-4)]GlcNAc
# Outline: as §1
# [3] = molecular target: Neu5Ac(a2-3)Gal(b1-3)[Fuc(a1-4)]GlcNAc(b1-3)Gal(b1-4)[Fuc(a1-3)]GlcNAc
# Outline: as §1
# [4] = molecular target: Neu5Ac(a2-3)Gal(b1-3)[GlcNAc(b1-6)]GalNAc
# Outline: as §1
# [5] = molecular target: Neu5Ac(a2-3)Gal(b1-3)[Neu5Ac(a2-6)]GalNAc
# Outline: as §1
# [6] = molecular target: Neu5Ac(a2-3)Gal(b1-3)[Neu5Ac(a2-6)]GlcNAc(b1-3)[Fuc(a1-3)[Gal(b1-4)]GlcNAc(b1-6)]Gal(b1-4)Glc
# Outline: as §1
# [7] = molecular target: Neu5Ac(a2-3)Gal(b1-3)]Neu5Ac(a2-3)Gal(b1-4)]GlcNAc
# Outline: as §1
# Neu5Ac(a2-3)Gal(b1-4)Glc = molecular target: Neu5Ac(a2-3)Gal(b1-4)Glc
# Outline: as §1
# [8] = molecular target: Neu5Ac(a2-3)Gal(b1-4)GlcNAc
# Outline: as §1
# [9] = molecular target: Neu5Ac(a2-3)Gal(b1-4)GlcNAc(b1-2)Man
# Outline: as §1
# [10] = molecular target: Neu5Ac(a2-3)Gal(b1-4)GlcNAc(b1-2)Man(a1-3)[GlcNAc(b1-4)][Neu5Ac(a2-3)Gal(b1-4)GlcNAc(b1-2)Man(a1-6)]Man(b1-4)GlcNAc(b1-4)GlcNAc
# Outline: as §1
# [11] = molecular target: Neu5Ac(a2-3)Gal(b1-4)GlcNAc(b1-2)Man(a1-3)[Neu5Ac(a2-3)Gal(b1-4)GlcNAc(b1-2)Man(a1-6)]Man(b1-4)GlcNAc(b1-4)GlcNAc
# Outline: as §1
# [12] = molecular target: Neu5Ac(a2-3)Gal(b1-4)GlcNAc(b1-2)Man(a1-3)[Neu5Ac(a2-3)Gal(b1-4)GlcNAc(b1-2)Man(a1-6)]Man(b1-4)GlcNAc(b1-4)[Fuc(a1-6)]GlcNAc
# Outline: as §1
# [13] = molecular target: Neu5Ac(a2-3)Gal(b1-4)GlcNAc(b1-2)Man(a1-3)[Neu5Ac(a2-6)Gal(b1-4)GlcNAc(b1-2)Man(a1-6)]Man(b1-4)GlcNAc(b1-4)GlcNAc
# Outline: as §1
# [14] = molecular target: Neu5Ac(a2-3)Gal(b1-4)GlcNAc(b1-2)[Neu5Ac(a2-3)Gal(b1-4)GlcNAc(b1-4)]Man(a1-3)[GlcNAc(b1-4)][Neu5Ac(a2-3)Gal(b1-4)GlcNAc(b1-2)[Neu5Ac(a2-3)Gal(b1-4)GlcNAc(b1-6)]Man(a1-6)]Man(b1-4)GlcNAc(b1-4)GlcNAc
# Outline: as §1
# [15] = molecular target: Neu5Ac(a2-3)Gal(b1-4)GlcNAc(b1-2)[Neu5Ac(a2-3)Gal(b1-4)GlcNAc(b1-4)]Man(a1-3)[GlcNAc(b1-4)][Neu5Ac(a2-3)Gal(b1-4)GlcNAc(b1-4)Man(a1-6)]Man(b1-4)GlcNAc(b1-4)GlcNAc
# Outline: as §1
# [16] = molecular target: Neu5Ac(a2-3)Gal(b1-4)GlcNAc(b1-2)[Neu5Ac(a2-3)Gal(b1-4)GlcNAc(b1-6)]Man(a1-6)[Neu5Ac(a2-3)Gal(b1-4)GlcNAc(b1-2)Man(a1-3)]Man(b1-4)GlcNAc(b1-4)GlcNAc
# Outline: as §1
# [17] = molecular target: Neu5Ac(a2-3)Gal(b1-4)GlcNAc(b1-2)[Neu5Ac(a2-3)Gal(b1-4)GlcNAc(b1-6)]Man(a1-6)[Neu5Ac(a2-3)Gal(b1-4)GlcNAc(b1-2)Man(a1-3)][GlcNAc(b1-4)]Man(b1-4)GlcNAc(b1-4)GlcNAc
# Outline: as §1
# [18] = molecular target: Neu5Ac(a2-3)Gal(b1-4)GlcNAc(b1-3)Gal
# Outline: as §1
# [19] = molecular target: Neu5Ac(a2-3)Gal(b1-4)GlcNAc(b1-3)Gal(b1-3)GlcNAc
# Outline: as §1
# [20] = molecular target: Neu5Ac(a2-3)Gal(b1-4)GlcNAc(b1-3)Gal(b1-4)GlcNAc
# Outline: as §1
# [21] = molecular target: Neu5Ac(a2-3)Gal(b1-4)GlcNAc(b1-3)Gal(b1-4)GlcNAc(b1-2)Man(a1-3)[Neu5Ac(a2-3)Gal(b1-4)GlcNAc(b1-3)Gal(b1-4)GlcNAc(b1-2)Man(a1-6)]Man(b1-4)GlcNAc(b1-4)GlcNAc
# Outline: as §1
# [22] = molecular target: Neu5Ac(a2-3)Gal(b1-4)GlcNAc(b1-3)Gal(b1-4)GlcNAc(b1-3)Gal(b1-4)GlcNAc
# Outline: as §1
# [23] = molecular target: Neu5Ac(a2-3)Gal(b1-4)GlcNAc(b1-3)Gal(b1-4)GlcNAc(b1-3)Gal(b1-4)GlcNAc(b1-2)Man(a1-3)[Neu5Ac(a2-3)Gal(b1-4)GlcNAc(b1-3)Gal(b1-4)GlcNAc(b1-3)Gal(b1-4)GlcNAc(b1-2)Man(a1-6)]GalNAc
# Outline: as §1
# [24] = molecular target: Neu5Ac(a2-3)Gal(b1-4)GlcNAc(b1-3)Gal(b1-4)GlcNAc(b1-3)GalNAc
# Outline: as §1
# [25] = molecular target: Neu5Ac(a2-3)Gal(b1-4)GlcNAc(b1-3)Gal(b1-4)GlcNAc(b1-3)[Neu5Ac(a2-3)Gal(b1-4)GlcNAc(b1-3)Gal(b1-4)GlcNAc(b1-6)]GalNAc
# Outline: as §1
# [26] = molecular target: Neu5Ac(a2-3)Gal(b1-4)GlcNAc(b1-3)Gal(b1-4)GlcNAc(b1-6)[Gal(b1-3)]GalNAc
# Outline: as §1
# [27] = molecular target: Neu5Ac(a2-3)Gal(b1-4)GlcNAc(b1-3)Gal(b1-4)[Fuc(a1-3)]GlcNAc
# Outline: as §1
# [28] = molecular target: Neu5Ac(a2-3)Gal(b1-4)GlcNAc(b1-3)GalNAc
# Outline: as §1
# [29] = molecular target: Neu5Ac(a2-3)Gal(b1-4)GlcNAc(b1-3)[Neu5Ac(a2-3)Gal(b1-4)GlcNAc(b1-6)]GalNAc
# Outline: as §1
binder,measurement,setting,value
B1,glycan array binding signal (z-score),[1],-0.396
same,glycan array binding signal (z-score),[2],0.712
same,glycan array binding signal (z-score),[3],3.62
same,glycan array binding signal (z-score),[4],-0.265
same,glycan array binding signal (z-score),[5],-0.282
same,glycan array binding signal (z-score),[6],-0.389
same,glycan array binding signal (z-score),[7],-0.338
same,glycan array binding signal (z-score),Neu5Ac(a2-3)Gal(b1-4)Glc,-0.319
same,glycan array binding signal (z-score),[8],-0.425
same,glycan array binding signal (z-score),[9],0.365
same,glycan array binding signal (z-score),[10],-0.437
same,glycan array binding signal (z-score),[11],-0.437
same,glycan array binding signal (z-score),[12],-0.442
same,glycan array binding signal (z-score),[13],-0.442
same,glycan array binding signal (z-score),[14],-0.417
same,glycan array binding signal (z-score),[15],-0.445
same,glycan array binding signal (z-score),[16],2.92
same,glycan array binding signal (z-score),[17],-0.447
same,glycan array binding signal (z-score),[18],-0.364
same,glycan array binding signal (z-score),[19],-0.425
same,glycan array binding signal (z-score),[20],-0.398
same,glycan array binding signal (z-score),[21],-0.193
same,glycan array binding signal (z-score),[22],-0.419
same,glycan array binding signal (z-score),[23],0.442
same,glycan array binding signal (z-score),[24],-0.271
same,glycan array binding signal (z-score),[25],-0.325
same,glycan array binding signal (z-score),[26],-0.387
same,glycan array binding signal (z-score),[27],-0.425
same,glycan array binding signal (z-score),[28],-0.278
same,glycan array binding signal (z-score),[29],-0.381
